Measured values reported in PubChem BioAssay AID434955 (Southern Research Specialized Biocontainment Screening …, 2010).
Some of the results follow. The main result of the screen is listed elsewhere. These columns were measured beside it and carry no call. Most of these compounds were active or inconclusive in the main read-out, so they are no random draw.

Assay: beta-lactam sensitization of Mtb H37Rv, H37Rv (AID 434955);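 note: growth measured after seven days incubation then overnight dye step; 0% = bacteria only wells and 100% = bacteria with antibiotic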
Conditions: M. tuberculosis H37Rv growth with meropenem, percent inhibition; measured here: primary screen without meropenem; at 25 µM
With `CCOc1ccccc1OCC(=O)N/N=C(\C)Cc1ccc(OC)cc1` the inhibition was -7.86%.
`CCc1ccc2nc(N(CCN(C)C)C(=O)c3ccc4ccccc4c3)sc2c1` gave an inhibition of 7.05%.
In the case of `O=C1C(Cl)=C(N2CCCCC2)C(=O)N1c1ccccc1`, the inhibition is reported as 45.1%.
Work on `O=C(CCN1C(=O)/C(=C\c2ccccc2)SC1=S)NCCCN1CCOCC1` yielded an inhibition of 0.37%.
`CCc1cc(N2CCOCC2)cc2c1[nH]c1ccccc12` showed an inhibition of -2.95%.
`O=S(=O)(c1cccc2nonc12)N1CCCCC1` gave an inhibition of 1.49%.
`Cc1cc(C(=O)NC2CCCc3c2cnn3-c2cccc(C)c2C)no1` (stereo not given) showed an inhibition of 1.65%.
In the case of `O=C(Nc1cccc(F)c1)Nc1ccnn1C1CCN(C(=O)c2cscn2)CC1`, the inhibition is reported as 2.71%.
Work on `CCCCNC(=O)c1cc([N+](=O)[O-])[nH]n1` yielded an inhibition of 4.31%.
`CCOC(=O)c1sc(=S)n(CC)c1NC(=O)CC` showed an inhibition of -6.8%.
For `COc1cccc(Oc2nc(-c3ccccc3O)nc3ccccc23)c1`, the inhibition was 15.4%.
In the case of `CCCCN1c2cc(C)c(O)cc2C(C(=O)OCC)C1C` (stereo not given), the inhibition is reported as 5.87%.
Work on `N#Cc1c(NC(=O)CSc2ncn[nH]2)sc2c1CCCCC2` yielded an inhibition of -3.01%.
`CSc1nc(SCC(=O)NCc2ccco2)c2c3c(sc2n1)COC(C)(C)C3` showed an inhibition of -6.62%.
Compound `CCOC(=O)c1cnn(-c2ncnc3sc4c(c23)CCC4)c1N` has an inhibition of 54.4%.
`COc1cccc(NC(=O)Nc2cc(C)ccc2F)c1` gave an inhibition of 1.98%.
Compound `Cc1c(NC(=S)NC(=O)c2cc3ccccc3o2)cccc1C(=O)O` has an inhibition of -1.18%.
Work on `COc1nc(N(C#N)CC(N)=O)nc(N2CCCC2)n1` yielded an inhibition of 3.73%.
With `COc1ccc(-c2cc(C(F)F)nc(-n3nc(C)cc3C)n2)cc1` the inhibition was 46.9%.
With `CCOC(=O)C1CCCN(c2ccc(NC(=O)c3snc4c(=O)[nH]cnc34)cc2)C1` (stereo not given) the inhibition was 42.9%.
For `COc1ccccc1C(=O)Nc1nnc(SCC(=O)NCc2ccco2)s1`, the inhibition was 2.46%.
Work on `CC(C)OCc1c(C(=O)Nc2nccs2)oc2ccccc12` yielded an inhibition of 46.3%.
In the case of `CCCC(=O)N1CCN(c2ccc(NC(=S)NC(=O)CC)cc2)CC1`, the inhibition is reported as 35.5%.
In the case of `CCOc1ccc(S(=O)(=O)Nc2cccc(OC)c2)cc1`, the inhibition is reported as -8.91%.
In the case of `O=S(=O)(c1cccc(S(=O)(=O)N2CCOCC2)c1)N1CCCCC1`, the inhibition is reported as 4.14%.
With `O=C(COc1ccc(Cl)cc1)N1CCN(S(=O)(=O)c2ccccc2)CC1` the inhibition was -0.71%.
For `C#CCOc1c(Cl)cc(/C=N/NC(N)=S)cc1OCC`, the inhibition was 34.8%.
With `Cc1nn(C)c(C(=O)N/N=C/c2cccc(Oc3ccccc3)c2)c1Br` the inhibition was 10.6%.
Compound `CC(C)(CNC(=O)CO/N=C1/C=C2CCC3C(C(O)C[C@@]4(C)C3CC[C@]4(O)C(=O)CO)[C@@]2(C)CC1)C(O)C(=O)O` (stereo not given in full) has an inhibition of 6.86%.
In the case of `NC(=S)N/N=C/c1cccc(/C=N/NC(N)=S)c1`, the inhibition is reported as 19.4%.
For `COc1ccc(OCC(=O)N/N=C(\C)CC(=O)Nc2ccc(NC(C)=O)cc2)cc1`, the inhibition was -2.9%.
Compound `OCCNCCCCOc1ccc(OCc2ccccc2)cc1` has an inhibition of -10.5%.
With `O=S(=O)(c1cccc2cccnc12)N1CCCCC1` the inhibition was 8.7%.
With `CC(=O)Cc1nsc(NC(=O)c2ccc(-c3ccccc3Cl)o2)n1` the inhibition was 0.08%.
For `COc1ccc(/C=N/NC(N)=S)cc1OC(=O)c1cccc2ccccc12`, the inhibition was 83%.
`CCc1cc(=O)oc2c(CN3CCN(C)CC3)c(O)c(Cl)cc12` showed an inhibition of -2.21%.
Compound `CCc1ccc(-c2cc(C(F)(F)F)n3nc(C(=O)Nc4c(C)nn(Cc5ccccc5C)c4C)cc3n2)s1` has an inhibition of 6.94%.
With `COC(=O)C1CCN(C(=O)c2ccc3nc(-c4cccc(OC)c4)oc3c2)CC1` the inhibition was 7.04%.
Work on `Cc1ccc2c(c1)NC(=O)C(CC(=O)NCCN(CC(C)C)CC(C)C)O2` (stereo not given) yielded an inhibition of -0.35%.
Work on `O=C(c1ccc(OC2CCN(Cc3ccccc3C(F)(F)F)CC2)cc1)N1CCCCC1` yielded an inhibition of 95.6%.
In the case of `O=C1OC(Nc2ncccn2)c2ccccc21` (stereo not given), the inhibition is reported as 2.35%.
With `CN(c1ccccc1)S(=O)(=O)c1ccc(NC(=O)C2CC2)cc1` the inhibition was -0.86%.
`Cc1cccc2c(C(=O)n3cccn3)cc(-c3ccccc3Cl)nc12` gave an inhibition of 26.7%.
`O=C(Nc1ccc(Oc2ccccc2)nc1)C1CCN(Cc2cccc(F)c2)CC1` showed an inhibition of -0.55%.
`Cc1nc(CN(C)C(=O)CC2C(=O)NCCN2Cc2ccc(F)cc2)cs1` (stereo not given) gave an inhibition of 1.89%.
`COCCNc1oc(-c2ccco2)nc1S(=O)(=O)c1ccccc1` gave an inhibition of 1.12%.
Compound `CC(C)Cc1ccc(CN2CCCC(NC(=O)CCn3cnnn3)C2)cc1` (stereo not given) has an inhibition of -2.5%.
For `O=C(c1cc(Br)ccc1Cl)N1CCC2(CC1)OCCO2`, the inhibition was -3.36%.
With `CSc1ncccc1C(=O)Nc1cc(C)ccn1` the inhibition was -4.81%.
Work on `C/C(=N\Nc1cc(-c2ccccc2)nc(-c2ccc(Br)cc2)n1)c1cccc(N)c1` yielded an inhibition of 99.4%.
In the case of `CC1CN(C(=O)CCC(=O)NC2CCCCC2)c2ccccc2S1` (stereo not given), the inhibition is reported as -7.63%.
Compound `CCc1ccc(/C=N/n2c(COc3ccccc3)n[nH]c2=S)cc1` has an inhibition of 9.78%.
Work on `S=C(Nc1ccccc1Cl)N1CCCC(c2ccccc2)=N1` yielded an inhibition of 19.1%.
In the case of `CCCN1C(=O)/C(=c2\s/c(=C3\C=Cc4ccccc4N3CC)c(=O)n2-c2ccccc2)SC1=S`, the inhibition is reported as 1.19%.
With `COc1ccc(CN(C)C(=O)c2cc(S(=O)(=O)Nc3ccccc3F)ccc2C)c(OC)c1` the inhibition was 4.27%.
In the case of `O=C(CSc1nnc(CNC(=O)c2cccc(C(F)(F)F)c2)o1)NC1CCCCC1`, the inhibition is reported as 7.24%.
In the case of `Cc1ccc(S(=O)(=O)N2CCN(C(=O)COc3ccc(-c4nnco4)cc3)CC2)cc1`, the inhibition is reported as -1.76%.
`CC1CCCN(c2c([N+](=O)[O-])c(=O)oc3ccccc23)C1` (stereo not given) gave an inhibition of 2.16%.
Work on `CCCn1cc(S(=O)(=O)c2ccc(F)cc2)c(=O)c2cc(OCC)ccc21` yielded an inhibition of 4.19%.
With `Cc1cccc(-c2cc(C(=O)Nc3c(C)n(C)n(-c4ccccc4)c3=O)c3ccccc3n2)c1` the inhibition was 2.18%.
With `C1=C(CCNc2nnnn2-c2ccccc2)CCCC1` the inhibition was 1.02%.
`O=C(Nc1ccc(F)cc1)c1oc2ccccc2c1NC(=O)C1CC1` gave an inhibition of 5.73%.
`CC(C)(C)c1ccc(OCc2ccc(C(=O)N/N=C3\CC4CC=CC34)cc2)cc1` (stereo not given) gave an inhibition of 3.28%.
In the case of `Cc1cccc(NC(=O)C(C)SCc2nc3sc(C)c(C)c3c(=O)[nH]2)n1` (stereo not given), the inhibition is reported as 0.16%.
Work on `Cc1ccc(Cn2c(C(C)Nc3nc(-c4ccc(Cl)cc4)cs3)nc3cc(C(=O)NCCCO)ccc32)cc1` (stereo not given) yielded an inhibition of -0.2%.
`CCOC(=O)c1[nH]c2ccccc2c1NC(=O)c1nonc1C` gave an inhibition of -4.16%.
With `Cc1ccc(C(=O)COC(=O)c2cccc([N+](=O)[O-])c2)s1` the inhibition was 61%.
Compound `CCNS(=O)(=O)c1ccc(Br)c(OC)c1` has an inhibition of -6.46%.
Compound `COc1ccccc1NC(=S)NC(=O)CCc1ccccc1` has an inhibition of 45.8%.
`CC(=O)c1c(C)[nH]c(C(=O)CN2C(=O)NC(C)(c3ccc4c(c3)OCO4)C2=O)c1C` (stereo not given) gave an inhibition of -5.94%.
In the case of `O=C(Nc1cccc2ccccc12)N1CCCN(c2c(Cl)cncc2Cl)CC1`, the inhibition is reported as 11.7%.
Compound `CCOC(=O)c1sc(NC(=O)CN2CCCC2)c(C(=O)OCC)c1C` has an inhibition of 8.02%.
With `O=C(Nc1cccc(Br)c1)c1cccc(OC(=S)N2CCOCC2)c1` the inhibition was 10.4%.
Work on `O=C(COc1ccccc1[N+](=O)[O-])N1CCN(C(=O)c2ccco2)CC1` yielded an inhibition of 0.04%.
Work on `Cc1cc2ncc(-c3ncc(C(F)(F)F)cc3Cl)cn2n1` yielded an inhibition of 0.63%.
In the case of `COC(=O)c1cccc(S(=O)(=O)N2CCOCC2)c1`, the inhibition is reported as 2.17%.
With `O=C(CCNc1ccccc1)c1cccc([N+](=O)[O-])c1` the inhibition was 23.4%.
Work on `CC(/C=N/Nc1nncc(=O)[nH]1)=C\c1ccccc1` yielded an inhibition of -3.9%.
`S=c1nc(-c2ccccc2)[nH]n1-c1ccccc1` gave an inhibition of 3.33%.
`CC(C)(C(=O)c1ccccc1)/[N+]([O-])=C/c1ccccc1F` showed an inhibition of 5.91%.
Work on `CN1CCN(C(=O)COCc2cc(-c3ccc4c(c3)OCO4)on2)CC1` yielded an inhibition of -0.75%.
`CC(C)NC(=O)C(=O)NNC(=O)C12CC3CC(CC(C3)C1)C2` gave an inhibition of 15.8%.
In the case of `Cc1cccc(CC(C)NC(=O)c2cc(COc3ccc(C)c(C)c3)on2)n1` (stereo not given), the inhibition is reported as 14.2%.
`Cc1cc(C)c(CN2CCC(n3nccc3NC(=O)c3ccccc3Cl)CC2)cc1C` gave an inhibition of 9.81%.
In the case of `COc1ccc(C2CC(c3ccccc3)Nc3ncnn32)cc1` (stereo not given), the inhibition is reported as -9.78%.
In the case of `O=C(CSCC(=O)Nc1ccccc1)N/N=C/c1c(O)ccc2ccccc12`, the inhibition is reported as 44.4%.
In the case of `CC(C)n1cc(CN2CCCC(CNS(=O)(=O)c3cccc4cccnc34)C2)cn1` (stereo not given), the inhibition is reported as 5.35%.
With `O=C(CN1C(=O)c2cccnc2Oc2ccc(Cl)cc21)N1CCCC1` the inhibition was 3.92%.
Compound `COc1ccc(NS(=O)(=O)c2cn(C)nc2C)cc1` has an inhibition of 3.65%.
`O=C(c1cc(COc2c(F)cccc2F)on1)N1CCCCCC1` showed an inhibition of -0.9%.
`CCc1ccc2c(c1)c1nnc(NN)nc1n2CC` gave an inhibition of -0.03%.
`COC(=O)CSc1nnc(-c2cnccn2)n1C` showed an inhibition of 4.69%.
With `CCCC(C)NC(=O)c1ccc(OCc2ccc(Cl)cc2)c(OC)c1` (stereo not given) the inhibition was 50.1%.
In the case of `Nc1nc(Sc2ncccc2[N+](=O)[O-])n[nH]1`, the inhibition is reported as 3.27%.
For `O=C(NCC1(O)CCCCC1)C1CCC(=O)N(Cc2ccccc2F)C1` (stereo not given), the inhibition was -0.02%.
`Cc1onc(-c2ccccc2)c1C(=O)NC(=S)NNC(=O)c1ccc(O)cc1O` showed an inhibition of 10.1%.
Work on `CCOC(=O)c1ccc(NC(=O)NCCc2ccccc2OC)cc1` yielded an inhibition of 4.48%.
Compound `O=C(CN1CCCC1)Nc1sc2c(c1C(=O)Nc1ccc(Br)cc1)CCC2` has an inhibition of -0.27%.
In the case of `CN1CCN(c2ccc(NC(=O)c3ccc(-c4ccc(Cl)cc4)o3)cc2)CC1`, the inhibition is reported as 99.6%.
`Cc1cccc2c1nc(-c1ccccc1)n1nnnc21` showed an inhibition of 3.95%.
Work on `CCOC(=O)c1sc(NC(=O)CSc2n[nH]c(CC(C)C)n2)nc1C` yielded an inhibition of 15.1%.
For `CCOC(=O)c1ccccc1NC(=O)COC(=O)CCC(=O)N1CCOCC1`, the inhibition was 4.76%.
For `CC(=O)c1cccc(CN2CCC(n3nccc3NC(=O)CCCc3ccccc3)CC2)c1`, the inhibition was 0.9%.
With `CCN(Cc1ccccc1)S(=O)(=O)c1cc2[nH]c(=O)c(=O)[nH]c2cc1C` the inhibition was -7.55%.
With `Cc1ccc(CNS(=O)(=O)c2c(C)[nH]c(C)c2C(=O)N2CCCCC2)cc1` the inhibition was 2.51%.
For `O=C(/C(=C/c1ccc(Cl)cc1)c1nc2ccccc2[nH]1)c1cccs1`, the inhibition was 90.9%.
`CCn1c(CN2CCOCC2)nnc1SCC(=O)Nc1ccccc1C` gave an inhibition of 0.37%.
With `COc1ccc(/C(N)=N/OC(=O)Cc2cccs2)cc1` the inhibition was 1.46%.
For `COc1ccc(OCc2cc(C(=O)NC(C)Cn3cncn3)no2)c(Cl)c1` (stereo not given), the inhibition was -2.57%.
In the case of `CC(=O)N(Cc1cc(=O)[nH]c2ccccc12)c1ccccc1C`, the inhibition is reported as -8.87%.
